Here are results for 167 variants from the RNAGym collection of RNA variant scans (doi:10.1093/nar/gkz1192).

B1: CPEB3 Ribozyme (parent)
chain: UAACAGGGGGCCACAGCAGAAGCGUUCACGUCGCAGCCCCUGUCAGAUUCUGGUGAAUCUGCGAAUUCUGCUGUAUAUCUC

The source gives no read counts; variants with many changes may rest on few reads.

The variants in this data set derive from B1. Description: self-cleavage, relative activity (ratio to wild type); higher = more cleavage; in vitro, sequencing. In short, it runs like this: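 Relative activity was defined as the cleaved/total read fraction for a variant divided by the same fraction for the unmutated ribozyme. CPEB3 self-cleaving ribozyme libraries were made by rounds of error-prone PCR, barcoded, and transcribed in vitro with T7 RNA polymerase for 5 hours at 37°C, and cleavage ran through transcription plus a 15 min DNase I step before EDTA. Illumina sequencing of template-switched reverse transcripts gave the reads, and DNA sequencing mapped the barcodes. Averages come from three batches, using variants with at least 5 reads.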
In the case of A18G U31A U43C U60C, the self-cleavage came out at 0.03.
In the case of A18G C29A U72A U80C, the self-cleavage amounted to 0.5.
To A18G A35G U48C U72A belongs 0.23; to A18G A21G U26C A28U U67C, 0.13.
To G16C A64G U67A belongs 0.43; to A18G U41A U60C, 0.07.
Take G16C U25C U60A: the self-cleavage came out at 0.05.
To A18G U31A U51C belongs 0.22.
With A18G U41C U80A, the self-cleavage turned out to be 0.91.
The same measure for C17G U26A C39U U51A U54C U69C U72C: 0.09; for A18G A35G U49A U60C: 0.19; for A18G C32A U67A U76C: 0.11.
The same measure for G16C A45G A56G A75U U78A: 0.2; for A18G U25C A57G A77G: 0.24.
The same measure for C17G A18U A56G: 0.2.
For the variant A18G A20G U48C U80A, the self-cleavage came out at 0.12.
The same measure for C17A G42A U48C U67G: 0.15.
The same measure for C17G U26C A47G C68U: 0.07; for A18G U31C U66G U69C: 0.12; for C17U U25A U31C A35G A56G U78C: 0.06.
As to A18G U25C C32A U49C U78C, the self-cleavage is 0.04.
To A18G U25C A57G U67C belongs 0.08.
To A18G A35U C44A A75U U76A belongs 0.06; to A18G A20U U58C U67C U72C, 0.19.
On to C17U U31C A35G C37U U72A, for which the self-cleavage amounted to 0.23.
For C17U A20U U51C U54C, the self-cleavage is 0.09.
To A18G C23U A65G U67C belongs 0.2; to A18G A45G A64G, 0.41; to G16U U51G A75G, 0.37.
To A18G A20U A28G U31A A35U G61C belongs 0.15.
The same measure for A18G A35U U48A U60A A77G U78C: 0.05; for A18G A21G U48C A64G: 0.05; for A18G U26A A56G U58C U76A: 0.11.
For the variant A18G A20G G52C U78C, the self-cleavage turned out to be 0.21.
To C17U A21G U43G U54C U60G U72G belongs 0.04; to A18G A35U U67C, 0.05.
To A18G A20C U26C A64G belongs 0.03.
As to C17G U25C U31A U74A, the self-cleavage was 0.03.
To G16C U31A A45C G55U A75U belongs 0.12.
The same measure for A18G A64G U80A: 0.7; for A18G A21G U26A A56G U72A: 0.06.
To C17U U25A U31A A35U A45G belongs 0.07; to A18G A21G C23U C38G G42A U54A U69C, 0.05.
On to A18G U41A U60A A64G U74G, for which the self-cleavage was 0.17.
To A18G A28G C44A A45G U54A A57C A77G belongs 0.03; to A18G A28G A47G, 0.19; to C17G U51C U67C, 0.08.
Consider A18G G36A U43C A57G U58C A65G, for which the self-cleavage came out at 0.06.
To A18C A21G G33A U48C U49C C62U belongs 0.03.
As for A18G U26A U58C, the self-cleavage came to 0.33.
The same measure for A18C G33C G53U A75G: 0.12.
The same measure for A18G A28C U66C: 0.08.
To A18G A45G A47G U69C belongs 0.25.
Turning to A18G A57G C68G U69A, the self-cleavage turned out to be 0.19.
The same measure for G16U A28G A57G: 0.22; for A18G A45G U67A U72C: 0.23.
The same measure for A18G A21G G22A: 0.39; for A18G G63C U69C: 0.65.
With A18G C29U U41C U43C A56G, the self-cleavage amounted to 0.2.
The same measure for C17U U26C C34U U60C A77U U78G: 0.1; for C17A A35U A75C U78C: 0.25; for A18G U41C C62G U72G: 0.15.
To A18G A21G A35G C39U U60C U80C belongs 0.32; to A18G U31A A56U, 0.31; to A18G U41C G55A, 0.15.
On to A18G A21G U51G U80C, for which the self-cleavage was 0.72.
The same measure for C17U U25C C29U C38U: 0.51; for A18G C44A U48A G55U: 0.11.
As to A18C U49A U60A U72C, the self-cleavage amounted to 0.12.
The same measure for A18C U26C A28U: 0.19; for A18G U25C C38U U51C A56G: 0.08.
The same measure for C17A G33A U72C: 0.17; for A18G G30U A56G U67C: 0.13; for A18G G36U C40G U72C: 0.06.
The same measure for G16C G19U U41A U54C A77G: 0.15.
On to A18G A20G U49C, for which the self-cleavage turned out to be 0.36.
To A18G U25C G61A belongs 0.17; to A18G U26C U43C U67C, 0.12.
To A18G C32A U41C U60A belongs 0.13.
As to A18G A28U U54A U80A, the self-cleavage was determined as 0.51.
Take C17U G19A U25A U54G: the self-cleavage was found to be 0.2.
To A18G A35G U58C A77U belongs 0.79; to A18G C23U A28G U41A G46A, 0.06; to A18G A21G G63A, 0.42.
The same measure for A18G U41A U49C A56G U69A U72C: 0.07; for A18G U31C U54A U58A U72C: 0.07; for C17A A45U G53U A57G U60G U67A: 0.03.
To A18G U41A U43C A56G A57G A64U belongs 0.06.
For A18G G70U U80C, the self-cleavage is 0.17.
The same measure for A18G U43G C44G U69C A77G U80C: 1.02.
Turning to G16U U54G G63C, the self-cleavage came out at 0.21.
To A18G G63U A77G belongs 1.
The same measure for C17U U31A U51C A57G: 0.14.
The same measure for A18G A28G G46U: 0.15; for C17U A18U A45G A65G U80A: 0.15; for C17U U76C A77G: 0.96.
In the case of A18C A35G U43C, the self-cleavage was 0.4.
The same measure for A18G A45U U54G U74A: 0.12.
Regarding A18G C29U U49C A57U U67C, the self-cleavage was determined as 0.06.
To A18G G33C U49A G61C G70A belongs 0.14; to A18G A21G U78C, 0.51; to A18G A35U C68A, 0.07.
To G16C C29A U72C belongs 0.34; to A18G A21G A47G U49A, 0.35.
The same measure for C17A U43C U78C C81U: 0.21; for A18G A21G A28U: 0.12; for A18G A35C U72A C79A: 0.15.
Take A18G C27A U41C U72A: the self-cleavage was determined as 0.17.
To C17U U26A A28G C37U belongs 0.07; to A18G C38U G46C A47G U58C, 0.08; to A18G A21G U31C A45U C59A U78A, 0.03.
Consider A18G U25C A35U, for which the self-cleavage is 0.27.
Regarding C17G A18U U26A U51C A64G, the self-cleavage came to 0.16.
The same measure for A18G A21G A56U A64U U76A: 0.38; for C17U U41G A45C A56G: 0.06; for A18G C32G A65G: 0.26.
To C17G G19U U60A U72C belongs 0.1.
To A18G U25A U58C belongs 0.22; to A18G C40U U43C U66C, 0.12.
In the case of A18G U25C G30A A45U C68G U69C, the self-cleavage turned out to be 0.07.
On to A18G U41A U60C U76A A77G, for which the self-cleavage came to 0.08.
The same measure for A18G A20G A21G U69A U78C: 0.18; for G16C A56G C62A: 0.17.
The same measure for A18C U41C C81U: 0.4; for A18G U31C C38A U41C U78C: 0.07.
To A18G U25C U51C A75G belongs 0.14; to A18G A35G A45U U48A U69A, 0.17.
C17U C23A A45U: the self-cleavage stood at 0.48.
The same measure for C17U U69A U78C: 0.26; for A18C G46A U60C A64U: 0.21; for A18G U31C U48C U54A: 0.09.
To G16U U25A A35G U67A C79G belongs 0.21; to C17U G33U C39U U58C U72C, 0.06.
The same measure for C17G U25C U54A: 0.29.
In the case of A18G A35U A64G, the self-cleavage came to 0.17.
To A18G C29U U41A U54C belongs 0.11; to A18G U25C A28U G42U A45U A56G U72C, 0.13; to A18G A45U A47U U67C, 0.1.
To A18G A47G U51A U60C A65G U69A belongs 0.19; to A18C A45G U58C, 0.19; to A18G G24A A28U U69C, 0.18.
A18G A65G U69C U74C U78C: the self-cleavage stood at 0.86.
To A18G G33A C44U A65G belongs 0.05; to A18G A20G C44A U51G C59A, 0.03.
With A18C A20G U31A U49C U58C U72A, the self-cleavage worked out at 0.15.
As for A18G U26C C27A A47G A56G, the self-cleavage stood at 0.17.
The same measure for G16U G52A A75G: 0.8; for C17G C23U U58C U60A: 0.08.
Turning to A18G A35U A77G, the self-cleavage amounted to 0.22.
As to A18G U26C U80C, the self-cleavage worked out at 0.31.
The same measure for C17G U26G G33A: 0.06; for A18G A21G U26A A45C U80C: 0.09.
To A18G U43C U69A belongs 0.31; to A18G A35G U51A U58C, 0.64; to A18G U41A U69C, 0.25.
To A18G U41A U69A belongs 0.14; to A18G U25A U41C U49A G52C U74C, 0.06.
Turning to A18G U43C A47C, the self-cleavage worked out at 0.2.
To A18G U43C A64U U67C belongs 0.08; to A18G U41C U54C A64G U78C, 0.18; to C17U C44U G61U, 0.06.
To A18G U25C U43C A57G belongs 0.06.
The same measure for A18G A28G U72C U78A U80A: 0.26; for C17A A20C U43C: 0.05; for A18G A20G U26A A45C A57G A65G: 0.06.
On to A18G A21G A28G U60C U76A U80A, for which the self-cleavage was found to be 0.04.
The same measure for A18G U31A A47G A65G: 0.11.
